Test results reported in PubChem BioAssay (NCATS).
Inconclusive results, whose numbers are uncertain, are shown with a selection of clear calls. No potency is given beside an inconclusive call; the fits are too rough. A structure can be active in one record and inactive in another. Active and inactive are the calls of the source. Unless noted, calls follow the shape of the dose curve; as a rule, active = well fitted curve in the direction sought with a large enough effect; inconclusive = small, poorly fitted or top-dose-only effect, or another doubt; inactive = no such curve, though single readings can be large; an effect the other way counts as inactive or inconclusive.

Target: Cytochrome P450 2D6 (Homo sapiens) (UniProt P10635)
Experiment: Cytochrome P450 family 2 subfamily D member 6 (CYP2D6) small molecule antagonists: luciferase biochemical (cell-free) qHTS assay (AID 1645840; active = well fitted curve in the direction sought with a large enough effect in the repeat runs; inconclusive = weak or mixed curves; inactive = no such curve, though single readings can be large; an effect the other way counts as inactive or inconclusive; also: nearly all actives have a fitted effect of over 55% in size)
Conditions: P450-Glo CYP2D6 enzyme, luciferin luminescence, 1 h; series mostly up to 57.4 µM
In short: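 P450-Glo luminescent screen: recombinant CYP2D6 enzyme–proluciferin substrate mix preincubated with compound 10 min at room temperature, then NADPH regeneration added for 1 h at room temperature. Detection reagent added for 20 min; luciferin light read as relative luminescence units.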
Potency is read from the fitted curve at half-maximal effect; tags tell the direction and shape of the fitted curve.

Chain of UniProt P10635 (P10635 whole entry, looked up): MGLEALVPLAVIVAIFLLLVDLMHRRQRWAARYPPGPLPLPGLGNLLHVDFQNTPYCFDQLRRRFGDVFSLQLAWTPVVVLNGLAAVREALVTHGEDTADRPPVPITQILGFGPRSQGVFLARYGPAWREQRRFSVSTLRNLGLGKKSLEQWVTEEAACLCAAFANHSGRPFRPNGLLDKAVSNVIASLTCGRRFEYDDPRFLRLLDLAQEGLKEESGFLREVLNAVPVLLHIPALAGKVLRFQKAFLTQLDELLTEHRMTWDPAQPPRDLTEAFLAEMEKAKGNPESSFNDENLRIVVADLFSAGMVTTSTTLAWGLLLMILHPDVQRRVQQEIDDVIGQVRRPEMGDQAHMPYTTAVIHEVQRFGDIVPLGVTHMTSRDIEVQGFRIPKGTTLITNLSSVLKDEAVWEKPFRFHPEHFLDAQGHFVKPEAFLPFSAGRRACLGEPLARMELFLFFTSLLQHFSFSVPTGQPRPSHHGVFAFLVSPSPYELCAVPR

SMILES | Potency
O=C(O)c1n[nH]c2c1C[C@H]1C[C@@H]21 | inactive
CCCCCCCCCCCC(=O)OCC(O)CO (stereo not given) | inconclusive [inhibitor, single point]
CN1C(=O)N(c2cc(Cl)cc(Cl)c2)C(=O)[C@@]1(C)Cc1ccc(Br)cc1 | inconclusive [inhibitor, partial curve]
O=S(=O)(NCCNC/C=C/c1ccc(Br)cc1)c1cccc2cnccc12 | active: 4.77 µM
O=C(CCCCN1CCOCC1)Nc1ccc(-c2cccnc2)cc1 | active: 6.01 µM

Target: Cytochrome P450 2C9 (Homo sapiens) (UniProt P11712)
Experiment: Cytochrome P450 family 2 subfamily C member 9 (CYP2C9) small molecule antagonists: luciferase biochemical (cell-free) qHTS assay (AID 1645842; active = well fitted curve in the direction sought with a large enough effect in the repeat runs; inconclusive = weak or mixed curves; inactive = no such curve, though single readings can be large; an effect the other way counts as inactive or inconclusive; also: nearly all actives have a fitted effect of over 55% in size)
Conditions: P450-Glo CYP2C9 enzyme assay, luciferin luminescence; series mostly up to 57.4 µM
In short: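 Luminescence, after 20 min with luciferin detection reagent, reflected CYP2C9 turnover during a 1 h NADPH-driven reaction at 37C. Enzyme-substrate mix contained 0.4% bovine serum albumin and was preincubated with compound 10 min at room temperature.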

Chain of UniProt P11712 (P11712 whole entry, looked up): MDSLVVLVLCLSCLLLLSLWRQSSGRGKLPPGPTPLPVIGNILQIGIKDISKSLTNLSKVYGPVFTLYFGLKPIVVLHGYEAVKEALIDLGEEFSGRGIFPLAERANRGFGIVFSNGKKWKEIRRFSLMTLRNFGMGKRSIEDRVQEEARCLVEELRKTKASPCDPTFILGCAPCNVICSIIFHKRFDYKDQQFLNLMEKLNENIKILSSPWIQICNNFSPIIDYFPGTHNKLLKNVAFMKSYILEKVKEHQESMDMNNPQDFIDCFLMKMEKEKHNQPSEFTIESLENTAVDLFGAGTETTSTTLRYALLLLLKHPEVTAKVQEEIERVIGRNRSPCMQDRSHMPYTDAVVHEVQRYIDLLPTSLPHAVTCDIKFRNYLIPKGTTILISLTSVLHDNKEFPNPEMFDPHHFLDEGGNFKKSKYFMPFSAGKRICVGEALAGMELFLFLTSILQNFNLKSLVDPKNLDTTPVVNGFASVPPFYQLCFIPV

SMILES | Potency
CCCCCCCCCCCC(=O)OCC(O)CO (stereo not given) | inconclusive [inhibitor, single point]
O=S(=O)(NCCNC/C=C/c1ccc(Br)cc1)c1cccc2cnccc12 | inconclusive [inhibitor, partial curve, poor fit]
S=C=Nc1ccc(N=C=S)cc1 | inactive
CNc1nc(Nc2cn(C(C)(C)C#N)nc2C)ncc1C(F)(F)F | active: 7.56 µM

Target: N-terminal Xaa-Pro-Lys N-methyltransferase 1 (Homo sapiens) (UniProt Q9BV86)
Experiment: Confirmatory qHTS for Inhibitors of N-terminal methyltransferase 1 (NTMT1): MTaseGlo Assay (AID 1645874); also: nearly all actives have a fitted effect of over 65% in size
Conditions: NTMT1 enzyme, MTase-Glo SAH luminescence; series mostly up to 100 µM
In short: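 Preincubation of NTMT1 (125 nM) plus SAM (100 uM) with test compounds lasted 15 min; methylation of 1 uM SPKRIA then proceeded 30 min in the dark at room temperature. Luciferase signal reported SAH produced.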

Chain of UniProt Q9BV86 (Q9BV86 whole entry, looked up): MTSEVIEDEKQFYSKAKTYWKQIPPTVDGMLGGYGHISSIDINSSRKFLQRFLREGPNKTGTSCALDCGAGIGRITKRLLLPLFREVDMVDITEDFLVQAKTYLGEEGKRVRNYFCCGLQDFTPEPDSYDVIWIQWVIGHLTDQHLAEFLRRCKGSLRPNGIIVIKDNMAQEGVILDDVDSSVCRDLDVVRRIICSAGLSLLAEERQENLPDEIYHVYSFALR

SMILES | Potency
Nc1ncnc2c1c(I)cn2[C@@H]1C[C@H](N)[C@@H](O)[C@H]1O | active: 3.65 µM
Cc1nc(CN(C)c2ncnc3ccc(-c4ccc5c(c4)OCO5)cc23)cs1 | active: 4.26 µM
CN(Cc1nccs1)c1ncnc2ccc(-c3ccc4c(c3)OCO4)cc12 | active: 11.5 µM
Clc1ccc2ncc(-c3cccc(NC4CCNC4)n3)n2c1 (stereo not given) | inconclusive [inhibitor, partial curve]

Test system: not listed separately
Experiment: Primary qHTS for inhibitors of nuclear receptor binding SET domain protein 2 (NSD2) in an isogenic RCH-ACV NSD2 p.E1099K mutant (9B) (AID 1645876); also: nearly all actives have a fitted effect of over 70% in size
Conditions: RCH-ACV NSD2 E1099K (9B) viability, CellTiter-Glo, 72 h; series mostly up to 44.9 µM

SMILES | Potency
CC1Oc2cc(cnc2N)-c2c(nn(C)c2C#N)CN(C)C(=O)c2ccc(F)cc21 (stereo not given) | inconclusive [inhibitor, partial curve]
Cc1cc(F)c(Nc2ncnc3cc(OCc4ccccc4)ccc23)cc1O | active: 3.66 µM
Cc1ccc(NS(=O)(=O)c2cc3c(cc2F)NC(=O)CC3)cc1Cl | inactive
CCCCCCCCCCCCCCCCOCCCOP(=O)(O)COC(CO)Cn1ccc(N)nc1=O (stereo not given) | inconclusive [inhibitor, partial curve]
Cc1[nH]c(/C=C2\C(=O)Nc3ccccc32)c(C)c1CCC(=O)O | inconclusive [inhibitor, single point]
Nc1ncnc2c1c(I)cn2[C@@H]1C[C@H](N)[C@@H](O)[C@H]1O | active: 18.4 µM
Cc1nc(CN(C)c2ncnc3ccc(-c4ccc5c(c4)OCO5)cc23)cs1 | active: 8.2 µM
C#Cc1cccc(Nc2ncnc3cc4c(cc23)OCCOCCOCCO4)c1 | inconclusive [inhibitor, partial curve, poor fit]
CNc1cc2c(Nc3cccc(Br)c3)ncnc2cn1 | active: 14.6 µM
CN(Cc1nccs1)c1ncnc2ccc(-c3ccc4c(c3)OCO4)cc12 | inconclusive [inhibitor, partial curve]
CN1C(=O)N(c2cc(Cl)cc(Cl)c2)C(=O)[C@@]1(C)Cc1ccc(Br)cc1 | inconclusive [inhibitor, single point]
O=S(=O)(NCCNC/C=C/c1ccc(Br)cc1)c1cccc2cnccc12 | inconclusive [inhibitor, single point]
CCCC(NC(=O)/C(C#N)=C/c1cccc(Br)n1)c1ccccc1 (stereo not given) | active: 2.91 µM
CCC(C)(O)C(O)C(=O)OCc1ccc(O[C@@H]2O[C@H](CO)[C@@H](O)[C@H](O)[C@H]2O)cc1 (stereo not given in full) | inactive
COc1cc(OC)c(C(=O)/C=C/c2ccccc2)c2c1C=CC(C)(C)O2 | active: 16.4 µM
C=CC[C@@H]1/C=C(\C)C[C@H](C)C[C@H](OC)[C@H]2O[C@@](O)(C(=O)C(=O)N3CCCC[C@H]3C(=O)O[C@H](/C(C)=C/[C@@H]3CC[C@@H](O)[C@H](OC)C3)[C@H](C)[C@@H](O)CC1=O)[C@H](C)C[C@@H]2OC | inconclusive [inhibitor, partial curve, poor fit]
O=c1sn(-c2cccc3ccccc23)c(=O)n1Cc1ccccc1 | inconclusive [inhibitor, full curve]
CN(C)CC(=O)N1CCC[C@@H](n2nc(-c3ccc(Oc4ccccc4)cc3)c3c(N)ncnc32)C1 | active: 1.64 µM

Test system: not listed separately
Experiment: Primary qHTS for inhibitors of nuclear receptor binding SET domain protein 2 (NSD2) in an RCH-ACV wild type WT cells (2C) (AID 1645877); also: nearly all actives have a fitted effect of over 70% in size
Conditions: RCH-ACV (leukaemia line) NSD2 WT (2C) viability, CellTiter-Glo, 72 h; series mostly up to 44.9 µM

SMILES | Potency
CC1Oc2cc(cnc2N)-c2c(nn(C)c2C#N)CN(C)C(=O)c2ccc(F)cc21 (stereo not given) | inconclusive [inhibitor, partial curve]
Cc1cc(F)c(Nc2ncnc3cc(OCc4ccccc4)ccc23)cc1O | active: 3.26 µM
CN1CCN(c2nc(C3=C(c4c[nH]c5ccccc45)C(=O)NC3=O)c3ccccc3n2)CC1 | inconclusive [inhibitor, single point]
COc1ccc(-c2oc3ncnc(N)c3c2-c2ccc(NC(=O)Nc3cc(C(F)(F)F)ccc3F)cc2)cc1 | active: 10.3 µM and inactive
Cc1[nH]c(/C=C2\C(=O)Nc3ccccc32)c(C)c1CCC(=O)O | inconclusive [inhibitor, single point]
CN(Cc1nccs1)c1ncnc2ccc(-c3ccc4c(c3)OCO4)cc12 | inconclusive [inhibitor, partial curve]
CN1C(=O)N(c2cc(Cl)cc(Cl)c2)C(=O)[C@@]1(C)Cc1ccc(Br)cc1 | inconclusive [inhibitor, single point]
O=S(=O)(NCCNC/C=C/c1ccc(Br)cc1)c1cccc2cnccc12 | inconclusive [inhibitor, single point]
C=CC[C@@H]1/C=C(\C)C[C@H](C)C[C@H](OC)[C@H]2O[C@@](O)(C(=O)C(=O)N3CCCC[C@H]3C(=O)O[C@H](/C(C)=C/[C@@H]3CC[C@@H](O)[C@H](OC)C3)[C@H](C)[C@@H](O)CC1=O)[C@H](C)C[C@@H]2OC | inconclusive [inhibitor, partial curve, poor fit]
